# Results taken from PubChem BioAssay (Tox21).
# Inconclusive means that the source gave no clear call. Such entries were picked first, then a sample of the others. Potencies of inconclusive entries are left out as doubtful fits. Some compounds were tested as several samples or in several runs, with calls that do not always agree. Active and inactive are the calls of the source. The call rests on the fitted dose curve; in most records, active means well fitted activation curve with a large enough effect in the repeat runs; inconclusive means weak or mixed curves; inactive means flat fitted curve, though single readings scatter.
# Test: A CellTox Green Cytotoxicity Assay to monitor cytotoxicity in HepG2 cells - 8 hour (AID 1224890); further: nearly all actives have a fitted effect of over 45% in size
# Conditions: CellTox Green fluorescence; series mostly up to 76.8 µM
# Procedure, shortened: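 Using 1536-well format, dye-containing HepG2 suspension was seeded, allowed 5 h at 37 C/5% CO2, dosed by pintool with compounds, positive and negative controls, and imaged for fluorescence across 40 h.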
# Potency means the concentration at half of the fitted maximal effect; tags describe the fitted curve by direction and shape.
row,Structure (SMILES),Potency
1,CN(C)C(=S)[S-].CN(C)C(=S)[S-].[Cu+2],"inconclusive [activator, partial curve, poor fit]"
2,Clc1ccc(CO/N=C(\Cn2ccnc2)c2ccc(Cl)cc2Cl)c(Cl)c1,"inconclusive [activator, single point]"
3,CCOC(=O)c1ccccc1N,active: 49 µM
4,CNC(C)Cc1ccccc1OC (stereo unspecified),"inconclusive [activator, partial curve, poor fit]"
5,O=C(O)C(F)(F)C(F)(F)C(F)(F)C(F)(F)C(F)(F)C(F)(F)C(F)(F)C(F)(F)C(F)(F)C(F)(F)F,"inconclusive [activator, single point]"
6,CC(c1ccccc1)(c1ccc(O)cc1)c1ccc(O)cc1,"inconclusive [activator, partial curve, poor fit]"
